Among all 310,000 compounds or so, about 14,000 (4.5%) showed an effect of 50% or more. The effect is printed as a negative number. This is one part of the list.
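Note: peak tail current of the secondary pulse compared with the same well before compound.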

human ether-à-go-go-related gene (hERG) potassium channel, sequence (Q12809 whole entry, looked up): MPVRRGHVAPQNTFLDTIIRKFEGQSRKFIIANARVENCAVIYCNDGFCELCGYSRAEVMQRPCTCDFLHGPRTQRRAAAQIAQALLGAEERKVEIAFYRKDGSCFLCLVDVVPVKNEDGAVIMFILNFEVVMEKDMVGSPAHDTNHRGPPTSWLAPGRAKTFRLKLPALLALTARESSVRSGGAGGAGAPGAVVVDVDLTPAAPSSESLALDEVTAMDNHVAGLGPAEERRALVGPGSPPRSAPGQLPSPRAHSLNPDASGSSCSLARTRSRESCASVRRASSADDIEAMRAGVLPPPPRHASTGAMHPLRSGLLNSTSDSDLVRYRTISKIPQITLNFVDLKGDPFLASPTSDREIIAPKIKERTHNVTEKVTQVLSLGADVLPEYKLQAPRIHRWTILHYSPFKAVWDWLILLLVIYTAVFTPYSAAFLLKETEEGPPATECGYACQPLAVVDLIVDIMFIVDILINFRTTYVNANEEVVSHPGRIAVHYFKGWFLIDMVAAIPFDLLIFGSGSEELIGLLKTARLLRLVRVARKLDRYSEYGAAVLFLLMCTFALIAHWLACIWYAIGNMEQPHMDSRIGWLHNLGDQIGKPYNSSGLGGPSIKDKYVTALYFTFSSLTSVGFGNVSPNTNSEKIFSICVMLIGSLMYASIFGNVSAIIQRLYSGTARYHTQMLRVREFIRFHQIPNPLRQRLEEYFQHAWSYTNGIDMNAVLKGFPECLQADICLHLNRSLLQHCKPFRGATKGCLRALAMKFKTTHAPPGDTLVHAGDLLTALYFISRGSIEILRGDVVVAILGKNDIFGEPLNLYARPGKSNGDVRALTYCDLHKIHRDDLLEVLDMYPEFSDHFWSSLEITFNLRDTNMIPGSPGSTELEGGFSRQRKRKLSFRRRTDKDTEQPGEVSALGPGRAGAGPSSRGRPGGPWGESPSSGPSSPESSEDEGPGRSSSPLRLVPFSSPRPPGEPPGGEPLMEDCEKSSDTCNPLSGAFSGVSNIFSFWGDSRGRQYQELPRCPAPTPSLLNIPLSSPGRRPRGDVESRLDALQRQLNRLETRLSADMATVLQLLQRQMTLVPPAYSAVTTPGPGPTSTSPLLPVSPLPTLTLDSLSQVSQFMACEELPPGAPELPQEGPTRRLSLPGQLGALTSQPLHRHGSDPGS

The assay addresses human ether-à-go-go-related gene (hERG) potassium channel (human, UniProt Q12809). Kind of assay: primary screen, population patch clamp on CHO cells stably expressing hERG.
Consider `Cc1c(Cc2ccccc2)c(=O)oc2c(C)c(OCC(=O)N[C@@H](Cc3ccccc3)C(=O)O)ccc12`, for which the “hERG current change (%, negative = inhibition) at 10uM” value was -2.39%. The same measure for `Cc1cc2c3c(c1C)C1(C(=O)N3C(C)(C)CC2C)C(C#N)=C(N)Oc2n[nH]c(C)c21` (stereo not drawn): -11.7%; for `Clc1ccc(-c2nc(/C=N/N3CCOCC3)c3ccccn23)cc1`: -5.18%; for `COC(=O)c1sc2cc(C(F)(F)F)cnc2c1-c1cccnc1`: -14.8%. For `O=[N+]([O-])c1cccc(NC(=S)Nc2nc(-c3ccc(Cl)cc3Cl)cs2)c1`, the “hERG current change (%, negative = inhibition) at 10uM” value is 13.9%.

For the molecule `Cc1ccc(-c2cc(N)n[nH]2)cc1`, the “hERG current change (%, negative = inhibition) at 10uM” value is 9.35%. On to `COc1ccccc1NC(=O)C(=O)NCC(c1ccco1)N1CCc2ccccc21` (stereo not drawn), for which the “hERG current change (%, negative = inhibition) at 10uM” value is -1.64%. `CCOc1ccccc1-c1cc(-c2ccc(OC)cc2)nc2c1c(=O)n(C)c(=O)n2C`: the “hERG current change (%, negative = inhibition) at 10uM” value is recorded as -5.84%.

Consider `CC(=O)N(c1ccc(Br)cc1)C1C=CS(=O)(=O)C1` (stereo not drawn), for which the “hERG current change (%, negative = inhibition) at 10uM” value was -1.24%.

Consider `O=C(NC1CC1)C1CCC(=O)N1C1CCCC1` (stereo not drawn), for which the “hERG current change (%, negative = inhibition) at 10uM” value is 6.82%.

For the molecule `CCOc1ccc(Nc2cc(C)nc(-n3nc(C)cc3C)n2)cc1`, the “hERG current change (%, negative = inhibition) at 10uM” value is reported as -19.8%. Regarding `O=C(NNc1cccc(Cl)c1)c1cccnc1Cl`, the “hERG current change (%, negative = inhibition) at 10uM” value worked out at 9.19%.

`Cc1noc(/C=C/N(C)C)c1S(=O)(=O)N1CCCC(C(=O)NC2CCCCC2)C1` (stereo not drawn): the “hERG current change (%, negative = inhibition) at 10uM” value is -5.49%. Under `O=c1c2cc(Cl)ccc2oc2nc3n(c(=O)c12)CCCS3` stands -12.3%. With `O=C(CNC(=O)c1ccco1)N/N=C/c1ccc(O)cc1O`, the “hERG current change (%, negative = inhibition) at 10uM” value is 19.9%. Consider `Cc1[nH]nc(NCCO)c1[N+](=O)[O-]`, for which the “hERG current change (%, negative = inhibition) at 10uM” value is 23.9%.

For the molecule `O=C1c2ccccc2COc2ccc(O)cc21`, the “hERG current change (%, negative = inhibition) at 10uM” value stood at 10.9%. With `CCOc1ccc(C2CC(=O)n3nc(C45CC6CC(CC(C6)C4)C5)nc3S2)cc1OC` (stereo not drawn), the “hERG current change (%, negative = inhibition) at 10uM” value is reported as 2.9%.

For `COc1ccc(OC)c(CNC(=O)CCC(=O)N2Cc3cccc(OC)c3Oc3ncccc32)c1`, the “hERG current change (%, negative = inhibition) at 10uM” value is -15.4%.

As for `Cc1ccc(Nc2n[nH]c(C)c2[N+](=O)[O-])cc1C`, the “hERG current change (%, negative = inhibition) at 10uM” value worked out at 19.2%. For `C/C(=N\NC(=O)c1ccncc1)c1cccnc1`, the “hERG current change (%, negative = inhibition) at 10uM” value stood at 26.7%. For the molecule `NC(=O)NC(CC(=O)NCCCc1ccccc1)c1ccccc1Cl` (stereo not drawn), the “hERG current change (%, negative = inhibition) at 10uM” value stood at 5.09%. Under `CC(=O)Nc1ccc(S(=O)(=O)NCC2CCC(C(=O)NCCC(C)C)CC2)cc1` (stereo not drawn) stands 19.9%.

In the case of `C1CCC(NC2=NCCC2)CC1.Cl`, the “hERG current change (%, negative = inhibition) at 10uM” value was -1.01%. In the case of `CC(OC(=O)CNS(=O)(=O)/C=C/c1ccccc1)C(=O)Nc1ccc(S(=O)(=O)N2CCCC2)cc1` (stereo not drawn), the “hERG current change (%, negative = inhibition) at 10uM” value is given as -5.21%. With `NC(=O)C1CCN(C(=O)CNC(=O)c2ccccc2)CC1`, the “hERG current change (%, negative = inhibition) at 10uM” value was -11.3%. For the molecule `CC#CCOC(=O)c1c(C)nc2sc3c(c2c1N)CCC(O)C3` (stereo not drawn), the “hERG current change (%, negative = inhibition) at 10uM” value is on record as -12.5%. `CCc1cc(=O)oc2cc(OC(C)C(=O)NCCCn3ccnc3)ccc12` (stereo not drawn): the “hERG current change (%, negative = inhibition) at 10uM” value is 9.41%.

Regarding `CCN(CC)c1ccc(C=C2C(=O)OC(c3ccccc3)OC2=O)cc1` (stereo not drawn), the “hERG current change (%, negative = inhibition) at 10uM” value turned out to be 25.3%. For `Cc1ccnc(NC(=O)c2ccoc2C)c1`, the “hERG current change (%, negative = inhibition) at 10uM” value is reported as -1.08%. With `CCCN1CCN(S(=O)(=O)c2ccc(-n3cnnn3)cc2)CC1`, the “hERG current change (%, negative = inhibition) at 10uM” value is listed as -28%.

Regarding `CCOC(=O)N1CCC(NC(=O)c2sc3nc4n(c(=O)c3c2C)CCCC4)CC1`, the “hERG current change (%, negative = inhibition) at 10uM” value was -1.15%.

As to `COc1ccc(-c2c[n+](CC(=O)OC3CC(C)CCC3C(C)C)c3n2CCC3)cc1.[Cl-]` (stereo not drawn), the “hERG current change (%, negative = inhibition) at 10uM” value is recorded as -69.3%.

As for `Cc1cc(C(=O)O)oc(=O)c1`, the “hERG current change (%, negative = inhibition) at 10uM” value was found to be 21.4%. The same measure for `CC(=O)N=c1c(C#N)cc2c(=O)n3ccccc3nc2n1Cc1ccccc1`: -40.2%; for `Cc1cccn2c(=O)c3cc(C(=O)NC4CCCCC4)n(C)c3nc12`: 12.5%.

Take `Cc1cccc(-n2nc(C)c3c2NC2=C(C(=O)CCC2)C3c2ccccn2)c1` (stereo not drawn): the “hERG current change (%, negative = inhibition) at 10uM” value is listed as -1.32%. Under `COc1ccc(NC(=O)CN(C)C(=O)CNC(=O)c2ccc(C)s2)cc1` stands -0.574%; under `Cc1nnc(SCC(=O)Nc2ccc(Cl)cn2)s1`, 10.7%; under `O=[N+]([O-])c1ccc(Cl)c(/C=N/N2CCN(Cc3ccccc3)CC2)c1`, -1.74%.

As to `CN/S(=N/S(=O)(=O)c1ccccc1)c1ccc(C)cc1` (stereo not drawn), the “hERG current change (%, negative = inhibition) at 10uM” value is on record as 0.084%. Regarding `COc1ccccc1CN(C)C(=O)C1(c2ccc(Cl)cc2)CC1`, the “hERG current change (%, negative = inhibition) at 10uM” value is -17.7%. Under `O=C(O)C1CCCCC1C(=O)Nc1ccc(S(=O)(=O)N2CCCC2)cc1` (stereo not drawn) stands 15.5%; under `O=C1C=C(c2ccc(-c3ccccc3)c(F)c2)C[C@@H](c2ccc(Cl)cc2)C1`, 10.6%; under `Cc1[nH]c2ccccc2c1C(=O)COc1ccccc1`, 6.08%.

The values above are taken from publication PMC4336329 (PLoS ONE, 2015).
